# Data taken from publication PMC10668032.
# The other results are listed elsewhere or left out. At the low end of the ranking the order means little.
# Molecular target: SIX1 homeodomain (reference allele) (UniProt Q15475)
# Test: universal protein binding microarray
# Settings: Universal all-10-mer PBM (8x60K, AMADID 030236), 300 nM GST-tagged protein, Alexa Fluor 488 anti-GST; buffer, salt, pH and temperature not stated; high values mean tight binding; most listed sequences are background and not binding sites; double strand, one strand shown
row,Sequence,binding signal
1,AAGAATAG,0.0297 E-score
2,ACTGACCG,-0.174 E-score
3,AATTGACT,-0.183 E-score
4,GGCTGTTA,-0.168 E-score
5,AAGATTAC,-0.131 E-score
6,GCAGAGAA,-0.159 E-score
7,CGAAGCCG,-0.0368 E-score
8,TCTGCGAA,-0.28 E-score
9,AAAATTGG,-0.257 E-score
10,ACACATGT,-0.149 E-score
11,GCCGTTAA,-0.119 E-score
12,AAGAGAGG,-0.013 E-score
13,GTGCCGAA,-0.142 E-score
14,AGCCGTCG,-0.135 E-score
15,CGCTTCCG,-0.0888 E-score
16,ACTCGGGG,0.212 E-score
17,AATCTCGT,-0.129 E-score
18,TGATGTAA,-0.0238 E-score
19,TAGGACTA,-0.0513 E-score
20,AGGAACGG,-0.035 E-score
21,CATTTCCA,-0.239 E-score
22,CCTCTCAC,0.125 E-score
23,GAAGGAGC,-0.117 E-score
24,CTTTGCCA,-0.276 E-score
25,AGGCGGAG,0.0721 E-score

row,Sequence,binding signal
1,CTGACTAC,-0.152 E-score
2,CGTGCTCC,-0.166 E-score
3,AGTCCGGA,-0.0309 E-score
4,CGACCAGA,-0.00464 E-score
5,AAATCAGG,-0.0954 E-score
6,GACGATAA,0.0255 E-score
7,CGGCTGCC,0.103 E-score
8,ACTTCTCC,0.00191 E-score
9,AACGGGGC,-0.116 E-score
10,AGCATCAT,0.126 E-score
11,CCGCGGTA,0.194 E-score
12,ACAGGACG,-0.287 E-score
13,GCTGCGCA,-0.187 E-score
14,ACCCTAAG,-0.00327 E-score
15,GTATACAA,0.252 E-score
16,CCCATGTA,-0.000915 E-score
17,AACAGCAT,-0.18 E-score
18,CGCACCAA,-0.221 E-score
19,GGATTTGA,0.0254 E-score
20,AGCGCGCT,-0.151 E-score
21,CCCACCAG,-0.023 E-score
22,ATGTCTCA,0.2 E-score
23,AGTCTGTA,-0.199 E-score
24,GAGGGCCC,-0.205 E-score
25,CGCTATGC,0.00308 E-score

row,Sequence,binding signal
1,GCCAGTCA,-0.125 E-score
2,CACCTGTC,0.12 E-score
3,GATGAACC,0.0931 E-score
4,GCTCCTCA,-0.114 E-score
5,CCATGTTA,-0.217 E-score
6,GAGTTCTA,-0.135 E-score
7,GCTACGCA,0.0407 E-score
8,ATGTGTTG,-0.0829 E-score
9,CATCGTTA,-0.0426 E-score
10,AGGCTCTG,-0.154 E-score
11,CGCCGTAA,-0.067 E-score
12,ACATCCCA,-0.0313 E-score
13,CCATTACA,0.0309 E-score
14,ACGATACA,0.369 E-score
15,CTGAGAAC,0.142 E-score
16,ATGCTAAT,-0.0759 E-score
17,AAGATCGA,0.0954 E-score
18,TCACAAGA,-0.0623 E-score
19,CAAGAGGC,-0.371 E-score
20,GTACTGCA,0.00817 E-score
21,ATGTGGCG,-0.192 E-score
22,CGATAACC,0.233 E-score
23,CGTTTGCA,0.0549 E-score
24,ATCCAACG,0.124 E-score
25,CGCTAACG,-0.091 E-score

row,Sequence,binding signal
1,GAACGAAA,-0.218 E-score
2,AGGGTGGA,0.0328 E-score
3,CGAATGAG,0.00757 E-score
4,ACTCACAC,0.09 E-score
5,ACTGTACT,-0.188 E-score
6,TACATCCA,0.156 E-score
7,ACCGGCAT,0.0696 E-score
8,CACCTCTG,-0.0822 E-score
9,AATTATAA,-0.215 E-score
10,ATTACGTA,0.0401 E-score
11,AATGCTAG,-0.0256 E-score
12,AACTTAAT,-0.0808 E-score
13,CGCGGCAG,-0.152 E-score
14,ACTGATGC,0.101 E-score
15,TATAGCGA,0.164 E-score
16,CTAACTAG,-0.00945 E-score
17,AAATGGCC,-0.342 E-score
18,AGGCTGGC,-0.316 E-score
19,CAAGATCC,0.304 E-score
20,GCAACGTA,-0.106 E-score
21,AAGCCTTC,-0.0552 E-score
22,GCTACTGA,-0.00656 E-score
23,GACCTGAC,-0.0575 E-score
24,AAACTGTC,-0.121 E-score
25,CGCCTGTC,-0.142 E-score

row,Sequence,binding signal
1,TGAAGAAA,-0.346 E-score
2,ATTTATGA,-0.0471 E-score
3,GTCGCGCA,-0.226 E-score
4,CGCTCTTC,-0.112 E-score
5,GGCACACA,-0.115 E-score
6,AGCCGGAG,0.0922 E-score
7,TATCCAAA,0.297 E-score
8,ATTGGAGG,-0.0132 E-score
9,ACTAAGGA,-0.118 E-score
10,AGTTCGCA,-0.24 E-score
11,ATTTGTTC,0.0847 E-score
12,AACAGAAT,-0.267 E-score
13,TTAGAAAA,-0.122 E-score
14,ACAACCAA,-0.18 E-score
15,CCCCACGG,0.138 E-score
16,CCGAGCAC,0.0323 E-score
17,CTATAGTC,-0.0843 E-score
18,CGACTTTC,-0.0569 E-score
19,GAGTAAAC,-0.0107 E-score
20,AACCAGCC,-0.135 E-score
21,ATCGCATA,0.287 E-score
22,AAGAGAAT,-0.201 E-score
23,CCCCCAAG,-0.0809 E-score
24,CCACATCA,-0.149 E-score
25,TGCATAAA,-0.0101 E-score

row,Sequence,binding signal
1,AGTGCCTC,-0.187 E-score
2,CAATTTAA,-0.124 E-score
3,AGCGGGGA,0.0641 E-score
4,GTTACGCA,-0.191 E-score
5,AGCCGGTC,-0.154 E-score
6,GCACACTA,-0.0581 E-score
7,ACACGAGC,-0.0821 E-score
8,CGGACGCA,-0.234 E-score
9,ACCTCCAT,-0.145 E-score
10,GCTCTGAA,-0.11 E-score
11,CGCATAGC,-0.153 E-score
12,CCTAGTAA,-0.0914 E-score
13,ACACAGCA,-0.0345 E-score
14,GTAAGATA,0.3 E-score
15,ACCTAAGA,-0.109 E-score
16,ACATGACT,-0.263 E-score
17,GGTTGTTA,-0.0579 E-score
18,CATGATCA,0.177 E-score
19,ATATGCAA,0.163 E-score
20,ATGGTGCA,0.00462 E-score
21,ACTCGTGG,-0.136 E-score
22,GATCCCCA,0.387 E-score
23,CTCTCAAA,-0.181 E-score
24,CATAGTAA,-0.0152 E-score
25,AGGTGCCG,-0.0651 E-score

row,Sequence,binding signal
1,AGTGGACC,-0.242 E-score
2,CGATATAG,0.362 E-score
3,AGAAGGTC,-0.0224 E-score
4,AGTTAATG,-0.111 E-score
5,ATAAACTG,0.0387 E-score
6,AGCGCTTC,-0.0809 E-score
7,AGCGGTCC,-0.256 E-score
8,CCACTGAA,-0.0419 E-score
9,CCGGGACG,-0.0563 E-score
10,CTCAGCCC,-0.191 E-score
11,GAATAGGC,-0.152 E-score
12,AATCTAAA,-0.111 E-score
13,CAGCTAAC,-0.135 E-score
14,CGTTTGAA,-0.0361 E-score
15,TATAGATA,0.347 E-score
16,CCCGGTCG,0.0848 E-score
17,CGAAAGAC,-0.376 E-score
18,ATGTAAAT,-0.0187 E-score
19,AACAGGAC,-0.217 E-score
20,CATTATAA,0.0163 E-score
21,ACGCCATA,0.151 E-score
22,GCAAGGTA,-0.0989 E-score
23,CTTTACCC,0.0507 E-score
24,ATTACAAT,-0.0225 E-score
25,AGAAACCT,0.0669 E-score

row,Sequence,binding signal
1,GAGCATCC,0.0158 E-score
2,AATGGGAG,-0.194 E-score
3,AATATCAC,0.38 E-score
4,CAACGAAA,-0.0394 E-score
5,GCCTGAGA,-0.0184 E-score
6,CGATGAAA,-0.114 E-score
7,ACGCCGTC,-0.00732 E-score
8,GCGCTAGC,-0.36 E-score
9,ATAATCCC,0.368 E-score
10,AAGCGTGT,-0.215 E-score
11,CTAGCGGA,-0.299 E-score
12,CGGCTCAC,0.174 E-score
13,ACAGTGAC,-0.00771 E-score
14,TCGTCGAA,-0.278 E-score
15,GACATAGA,-0.168 E-score
16,GGCGTGAA,-0.0462 E-score
17,ACAGTAGC,-0.306 E-score
18,CTTTCCGA,-0.116 E-score
19,TGAGTGAA,-0.0636 E-score
20,GGCTCGAC,-0.0764 E-score
21,CTCCGAAG,0.0719 E-score
22,CAAACCTC,-0.164 E-score
23,ATTGCATC,-0.0427 E-score
24,CCGTGACA,0.11 E-score
25,ACATCTTA,-0.169 E-score

row,Sequence,binding signal
1,ATCCACAA,0.256 E-score
2,GCTCAACC,-0.0824 E-score
3,ACTCCATG,0.0786 E-score
4,GAGGTTTA,0.101 E-score
5,ACTTCACT,-0.171 E-score
6,AGACCAGA,0.0871 E-score
7,ATGAACTG,-0.104 E-score
8,AGAACGAA,0.0098 E-score
9,CCGTGGAA,-0.0909 E-score
10,CGTTGTCC,-0.142 E-score
11,ATTTGGTC,-0.137 E-score
12,ATTATGGC,0.125 E-score
13,GATGAAAA,-0.0623 E-score
14,AGTCTGAC,-0.0773 E-score
15,GCTAATTA,-0.122 E-score
16,GATTCACC,-0.0667 E-score
17,GCCGCCAA,-0.317 E-score
18,CCCGTACG,0.0056 E-score
19,GCATTCCA,-0.127 E-score
